The record followed here is article PMC4490372, “Architecture of TFIIIC and its role in RNA polymerase III pre-initiation complex assembly” (Nature Communications, 2015).

Where a chain is given by its changes, count along the chain named. Names and notes keep the numbering of the source. No constants are given. Whether binding was seen depends on the method and setting. Some results given as binding are weak or reduced against the parent protein; the word gives no strength. For some assays here: Tags and fused reporters may be left off the sequences shown.

Test [1] concerns the target T1, τ60 (Tfc8), τB subunit of endogenous S. cerevisiae TFIIIC, fused with a C-terminal TAP-tag (S. cerevisiae) (UniProt Q12308).
T1 sequence: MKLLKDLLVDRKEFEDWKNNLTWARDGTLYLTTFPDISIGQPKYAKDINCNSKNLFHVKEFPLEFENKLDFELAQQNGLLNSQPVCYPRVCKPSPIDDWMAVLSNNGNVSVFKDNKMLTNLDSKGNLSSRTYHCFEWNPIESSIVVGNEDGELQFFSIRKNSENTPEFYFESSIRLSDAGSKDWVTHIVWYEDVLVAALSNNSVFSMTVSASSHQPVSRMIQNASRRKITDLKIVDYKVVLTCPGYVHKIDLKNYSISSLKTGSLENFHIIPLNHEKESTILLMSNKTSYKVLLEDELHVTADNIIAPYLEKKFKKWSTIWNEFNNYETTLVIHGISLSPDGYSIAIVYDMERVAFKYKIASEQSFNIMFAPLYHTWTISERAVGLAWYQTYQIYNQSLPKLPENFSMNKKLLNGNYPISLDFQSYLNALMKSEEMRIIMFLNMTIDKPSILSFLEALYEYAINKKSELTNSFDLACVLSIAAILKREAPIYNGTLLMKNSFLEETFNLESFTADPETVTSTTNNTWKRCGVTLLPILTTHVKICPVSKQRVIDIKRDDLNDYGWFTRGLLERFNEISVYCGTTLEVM
Kind of test: SEC; endogenous TFIIIC purified from yeast by the TAP tag on τ60 (heparin, IgG Sepharose, TEV, MonoQ), then Superose 6 10/300 in 25 mM HEPES pH 7.5, 150 mM NaCl, 1 mM DTT; SDS-PAGE of an elution peak fraction.

The target in test [2] is T2, τ138 (546–641), extended winged helix (eWH) domain (S. cerevisiae) (UniProt P34111).
T2 sequence: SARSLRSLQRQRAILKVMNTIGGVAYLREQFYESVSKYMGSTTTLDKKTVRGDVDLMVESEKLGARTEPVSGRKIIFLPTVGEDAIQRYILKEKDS
Nature of the test: ITC; MicroCal ITC200; 15 μM τ138 in the cell, 150 μM τ131 in the syringe; 20 mM Tris pH 7.5, 150 mM NaCl, 2 mM β-mercaptoethanol; 25 °C; both purified. On the technique in general: In ITC the heat of successive injections is recorded.

In test [3] the target is T3, τ138 (546–693), eWH-τIR (S. cerevisiae) (UniProt P34111).
T3 sequence: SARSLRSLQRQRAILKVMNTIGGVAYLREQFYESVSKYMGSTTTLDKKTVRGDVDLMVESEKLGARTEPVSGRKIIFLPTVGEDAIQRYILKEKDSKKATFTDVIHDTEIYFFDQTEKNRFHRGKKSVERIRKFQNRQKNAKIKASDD
Described as above.

The target in test [4] is T4, τ138 (641–693), τ131-Interaction Region (τIR) (S. cerevisiae) (UniProt P34111).
T4 sequence: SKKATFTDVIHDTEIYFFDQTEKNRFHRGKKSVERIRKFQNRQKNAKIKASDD
The description is as above.

The target of test [5] is T5, GST-τ138 (641–693) (S. cerevisiae) (UniProt P34111).
T5 sequence: T4 sequence
Nature of the test: pull-down; 15 μg GST-τ138 (641–693) on Glutathione Sepharose 4B; 900 nM wild-type or mutant τ131; 50 mM Tris pH 7.5, 150 mM NaCl, 2 mM DTT, 0.1% Tween20; 4 °C, 4 h; both purified.

B1: τ131 (Tfc4), τA subunit of endogenous S. cerevisiae TFIIIC (natural protein, UniProt P33339 1-1025, looked up)
chain: MAAGKLKKEQQNQSAERESADTGKVNDEDEEHLYGNIDDYKHLIQDEEYDDEDVPHDLQLSEDEYNSERDSSLLAEFSDYGEISEDDEEDFMNAIREASNFKVKKKKKNDKGKSYGRQRKERVLDPEVAQLLSQANEAFVRNDLQVAERLFNEVIKKDARNFAAYETLGDIYQLQGRLNDCCNSWFLAAHLNASDWEFWKIVAILSADLDHVRQAIYCFSRVISLNPMEWESIYRRSMLYKKTGQLARALDGFQRLYMYNPYDANILRELAILYVDYDRIEDSIELYMKVFNANVERREAILAALENALDSSDEESAAEGEDADEKEPLEQDEDRQMFPDINWKKIDAKYKCIPFDWSSLNILAELFLKLAVSEVDGIKTIKKCARWIQRRESQTFWDHVPDDSEFDNRRFKNSTFDSLLAAEKEKSYNIPIDIRVRLGLLRLNTDNLVEALNHFQCLYDETFSDVADLYFEAATALTRAEKYKEAIDFFTPLLSLEEWRTTDVFKPLARCYKEIESYETAKEFYELAIKSEPDDLDIRVSLAEVYYRLNDPETFKHMLVDVVEMRKHQVDETLHRISNEKSSNDTSDISSKPLLEDSKFRTFRKKKRTPYDAERERIERERRITAKVVDKYEKMKKFELNSGLNEAKQASIWINTVSELVDIFSSVKNFFMKSRSRKFVGILRRTKKFNTELDFQIERLSKLAEGDSVFEGPLMEERVTLTSATELRGLSYEQWFELFMELSLVIAKYQSVEDGLSVVETAQEVNVFFQDPERVKMMKFVKLAIVLQMDDEEELAENLRGLLNQFQFNRKVLQVFMYSLCRGPSSLNILSSTIQQKFFLRQLKAFDSCRYNTEVNGQASITNKEVYNPNKKSSPYLYYIYAVLLYSSRGFLSALQYLTRLEEDIPDDPMVNLLMGLSHIHRAMQRLTAQRHFQIFHGLRYLYRYHKIRKSLYTDLEKQEADYNLGRAFHLIGLVSIAIEYYNRVLENYDDGKLKKHAAYNSIIIYQQSGNVELADHLMEKYLSI
notes: τ131 (Tfc4), subunit of S. cerevisiae TFIIIC, endogenous subunit in the purified complex; Endogenous subunit; source: endogenous, purified from S. cerevisiae strain SC2342 as part of TFIIIC (TAP tag on τ60)
Turning to B1, the binding result in test [1] is “binds”.

B2: τ95 (Tfc1), τA subunit of endogenous S. cerevisiae TFIIIC (natural protein, UniProt P32367 1-649, looked up)
chain: MPVEEPLATLSSIPDSSADQAPPLIADEFTLDLPRIPSLELPLNVSTKHSSIQKAIKMCGGIEKVKEAFKEHGPIESQHGLQLYLNDDTDSDGSKSYFNEHPVIGKRVPFRDESVILKVTMPKGTLSKNNNSVKDSIKSLKDSNKLRVTPVSIVDNTIKFREMSDFQIKLDNVPSAREFKSSFGSLEWNNFKSFVNSVPDNDSQPQENIGNLILDRSVKIPSTDFQLPPPPKLSMVGFPLLYKYKANPFAKKKKNGVTEVKGTYIKNYQLFVHDLSDKTVIPSQAHEQVLYDFEVAKKTKVYPGTKSDSKFYESLEECLKILRELFARRPIWVKRHLDGIVPKKIHHTMKIALALISYRFTMGPWRNTYIKFGIDPRSSVEYAQYQTEYFKIERKLLSSPIVKKNVPKPPPLVFESDTPGGIDSRFKFDGKRIPWYLMLQIDLLIGEPNIAEVFHNVEYLDKANELTGWFKELDLVKIRRIVKYELGCMVQGNYEYNKYKLKYFKTMLFVKESMVPENKNSEEGMGVNTNKDADGDINMDAGSQMSSNAIEEDKGIAAGDDFDDNGAITEEPDDAALENEEMDTDQNLKVPASIDDDVDDVDADEEEQESFDVKTASFQDIINKIAKLDPKTAETMKSELKGFVDEVDL
notes: τ95 (Tfc1), subunit of S. cerevisiae TFIIIC, endogenous subunit in the purified complex; source: endogenous, purified from S. cerevisiae strain SC2342 as part of TFIIIC (TAP tag on τ60)
B2: the binding result in test [1] is recorded as “binds”.

B3: τ138 (Tfc3), τB subunit of endogenous S. cerevisiae TFIIIC (protein, UniProt P34111 1-1160)
chain: MVLTIYPDELVQIVSDKIASNKGKITLNQLWDISGKYFDLSDKKVKQFVLSCVILKKDIEVYCDGAITTKNVTDIIGDANHSYSVGITEDSLWTLLTGYTKKESTIGNSAFELLLEVAKSGEKGINTMDLAQVTGQDPRSVTGRIKKINHLLTSSQLIYKGHVVKQLKLKKFSHDGVDSNPYINIRDHLATIVEVVKRSKNGIRQIIDLKRELKFDKEKRLSKAFIAAIAWLDEKEYLKKVLVVSPKNPAIKIRCVKYVKDIPDSKGSPSFEYDSNSADEDSVSDSKAAFEDEDLVEGLDNFNATDLLQNQGLVMEEKEDAVKNEVLLNRFYPLQNQTYDIADKSGLKGISTMDVVNRITGKEFQRAFTKSSEYYLESVDKQKENTGGYRLFRIYDFEGKKKFFRLFTAQNFQKLTNAEDEISVPKGFDELGKSRTDLKTLNEDNFVALNNTVRFTTDSDGQDIFFWHGELKIPPNSKKTPNKNKRKRQVKNSTNASVAGNISNPKRIKLEQHVSTAQEPKSAEDSPSSNGGTVVKGKVVNFGGFSARSLRSLQRQRAILKVMNTIGGVAYLREQFYESVSKYMGSTTTLDKKTVRGDVDLMVESEKLGARTEPVSGRKIIFLPTVGEDAIQRYILKEKDSKKATFTDVIHDTEIYFFDQTEKNRFHRGKKSVERIRKFQNRQKNAKIKASDDAISKKSTSVNVSDGKIKRRDKKVSAGRTTVVVENTKEDKTVYHAGTKDGVQALIRAVVVTKSIKNEIMWDKITKLFPNNSLDNLKKKWTARRVRMGHSGWRAYVDKWKKMLVLAIKSEKISLRDVEELDLIKLLDIWTSFDEKEIKRPLFLYKNYEENRKKFTLVRDDTLTHSGNDLAMSSMIQREISSLKKTYTRKISASTKDLSKSQSDDYIRTVIRSILIESPSTTRNEIEALKNVGNESIDNVIMDMAKEKQIYLHGSKLECTDTLPDILENRGNYKDFGVAFQYRCKVNELLEAGNAIVINQEPSDISSWVLIDLISGELLNMDVIPMVRNVRPLTYTSRRFEIRTLTPPLIIYANSQTKLNTARKSAVKVPLGKPFSRLWVNGSGSIRPNIWKQVVTMVVNEIIFHPGITLSRLQSRCREVLSLHEISEICKWLLERQVLITTDFDGYWVNHNWYSIYEST
Regarding B3, the binding entry in test [1] is “binds”.

B4: τ55 (Tfc7), τA subunit of endogenous S. cerevisiae TFIIIC (natural protein, UniProt Q12415 1-435, looked up)
chain: MVVNTIYIARHGYRSNWLPEGPYPDPLTGIDSDVPLAEHGVQQAKELAHYLLSLDNQPEAAFASPFYRCLETVQPIAKLLEIPVYLERGIGEWYRPDRKPVIPVPAGYEILSKFFPGVISQEWDSTLTPNEKGETEQEMYMRFKKFWPLFIERVEKEYPNVECILLVTHAASKIALGMSLLGYDNPRMSLNENGDKIRSGSCSLDKYEILKKSYDTIDETDDQTSFTYIPFSDRKWVLTMNGNTEFLSSGEEMNWNFDCVAEAGSDADIKKRQMTKKTSSPIPEADDQTEVETVYISVDIPSGNYKERTEIAKSAILQYSGLETDAPLFRIGNRLYEGSWERLVGTELAFPNAAHVHKKTAGLLSPTEENETTNAGQSKGSSTANDPNIQIQEEDVGLPDSTNTSRDHTGDKEEVQSEKIYRIKERIVLSNVRPM
notes: τ55 (Tfc7), subunit of S. cerevisiae TFIIIC, endogenous subunit in the purified complex; source: endogenous, purified from S. cerevisiae strain SC2342 as part of TFIIIC (TAP tag on τ60)
In the case of B4, the binding entry in test [1] was “binds”.

B5: GST-tagged τ131 (123–566), wild type (domain or fragment, S. cerevisiae, UniProt P33339 123-566, looked up)
chain: VLDPEVAQLLSQANEAFVRNDLQVAERLFNEVIKKDARNFAAYETLGDIYQLQGRLNDCCNSWFLAAHLNASDWEFWKIVAILSADLDHVRQAIYCFSRVISLNPMEWESIYRRSMLYKKTGQLARALDGFQRLYMYNPYDANILRELAILYVDYDRIEDSIELYMKVFNANVERREAILAALENALDSSDEESAAEGEDADEKEPLEQDEDRQMFPDINWKKIDAKYKCIPFDWSSLNILAELFLKLAVSEVDGIKTIKKCARWIQRRESQTFWDHVPDDSEFDNRRFKNSTFDSLLAAEKEKSYNIPIDIRVRLGLLRLNTDNLVEALNHFQCLYDETFSDVADLYFEAATALTRAEKYKEAIDFFTPLLSLEEWRTTDVFKPLARCYKEIESYETAKEFYELAIKSEPDDLDIRVSLAEVYYRLNDPETFKHMLVDVVEMR
notes: also called GST-τ131; source: E. coli BL21 (DE3) Gold, purified (GST column, S200 SEC)
Turning to B5, the binding result in test [2] is given as “no binding (tested: 15 μM in the cell, 150 μM in the syringe)”.

B6: τ131 (123–566) L469K (domain or fragment, UniProt P33339 123-566)
chain: B5 chain with L347K
Turning to B6, the binding result in test [3] is reported as “no binding (tested: 15 μM in the cell, 150 μM in the syringe)”; in test [4] it was “no binding (tested: 15 μM in the cell, 150 μM in the syringe)”; in test [5] it was “no binding (tested: 900 nM τ131)”.

B7: τ131 (123–566) D468K (domain or fragment, UniProt P33339 123-566)
chain: B5 chain with D346K
For B7, the binding result in test [3] is “no binding (tested: 15 μM in the cell, 150 μM in the syringe)”; in test [4], “no binding (tested: 15 μM in the cell, 150 μM in the syringe)”; in test [5] it was “no binding (tested: 900 nM τ131)”.
